# Measurements published in the supplement of paper PMC3334620.
# Whole data set: some 33,000 sequences, median “E-score (-0.5 to 0.5)” near -0.017, cut for the highest 2% near 0.3. This is one part of the list.
# Biological target: T1, Sut1 (UniProt P53032)
# T1 sequence: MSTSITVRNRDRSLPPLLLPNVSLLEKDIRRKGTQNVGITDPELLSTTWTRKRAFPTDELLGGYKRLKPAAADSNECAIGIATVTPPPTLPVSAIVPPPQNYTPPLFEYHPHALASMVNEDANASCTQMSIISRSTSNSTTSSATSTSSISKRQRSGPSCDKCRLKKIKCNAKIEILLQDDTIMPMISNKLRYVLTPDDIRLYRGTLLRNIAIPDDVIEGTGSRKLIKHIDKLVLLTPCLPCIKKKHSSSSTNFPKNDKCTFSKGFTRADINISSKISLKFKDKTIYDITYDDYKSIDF
# Assay: PBM E-score (8-mer binding enrichment) (E-score (-0.5 to 0.5)); higher = stronger / more preferred TF binding; most listed sequences are background and not binding sites
# Settings: protein concentration: 200 nM; construct: GST-full length
# Outline: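 The E-score, a modified Wilcoxon-Mann-Whitney statistic, was computed by the Universal PBM Analysis Suite for every ungapped eight-base word pooled with its reverse complement. Scans behind it were normalised with masliner after bound GST-tagged yeast transcription factors were detected with fluorescent anti-GST. The proteins, at about 100-200 nM, had been applied to universal all-10-mer Agilent arrays made double-stranded by primer extension.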
row,Sequence,PBM E-score
1,ATTCGGTG,0.14
2,AGAGTCCA,-0.0986
3,ACCTTGCG,-0.0514
4,CTACCGGC,-0.164
5,CAAAGAAA,0.115
6,TTCCGGAA,0.395
7,GACTCTCC,-0.0114
8,AAATCCGT,0.149
9,GACTGACA,0.116
10,GACAGAAC,0.11
11,ACCCCATG,-0.0491
12,ATAACCAT,0.0405
13,CTGCAAGA,-0.136
14,CGTGCTCC,0.166
15,GCTCCATA,-0.0214
16,ACCCCGGG,0.347
17,GGGAGTCA,-0.126
18,ATTATCGG,0.141
19,CAAATGGA,-0.0114
20,CAAGCCAG,-0.171
21,AGCCTATC,-0.0713
22,ACTGTACG,0.0222
23,ATAACGTG,-0.0693
24,ACACTGGT,-0.102
25,AATCCACC,-0.0337

row,Sequence,PBM E-score
1,CGAGCCAG,-0.131
2,CCGTACAA,0.0894
3,ACAGTTTG,-0.156
4,AAGCTAAA,0.111
5,CAGTTGCG,0.0442
6,AGCGGGCA,-0.228
7,CGGTCACC,-0.165
8,ATTTTGAG,0.146
9,AGGAAATG,0.0446
10,TAAGTAAA,0.0854
11,AACAGCTC,-0.0889
12,GCGCCCCA,-0.319
13,AGCAGGTG,-0.102
14,ACGATTAT,0.171
15,AACCGCCT,-0.00836
16,CACAAAAA,0.25
17,CACTAGCC,-0.118
18,ATGTGCAA,0.001
19,ATATGAAG,0.084
20,GCTGGTTA,-0.062
21,CATACCAG,-0.186
22,ATGTCGCC,-0.221
23,AAAGTTAG,0.102
24,ACGAAACC,0.107
25,CAGGTCGA,-0.0726

row,Sequence,PBM E-score
1,AACTCGTC,-0.0207
2,ACTTCTCG,0.153
3,AAGACTGT,-0.274
4,AAGTTGAG,0.136
5,GGATTCGA,-0.0691
6,AGAAAAAA,0.175
7,ATCCTTGG,0.00304
8,CCATTTAA,0.141
9,CACTCAGC,-0.17
10,GCACCGAA,0.168
11,AATTCGAG,-0.0711
12,AGGGGCAA,-0.141
13,AGTGTTGA,0.0298
14,AAGTGATG,0.00091
15,AAAGCGAA,0.157
16,ATCCATTC,0.128
17,CAGGGTTC,-0.124
18,CATTGGGG,-0.263
19,AGTCTAGG,-0.0461
20,CGTACTGC,-0.0978
21,GGTATTAC,0.217
22,GGGACCGA,0.0612
23,AAACAAGG,-0.0876
24,AATACCCA,0.0987
25,TATTTAAA,0.279

row,Sequence,PBM E-score
1,GTAAGACA,-0.0361
2,AGTTCCAA,0.206
3,AATTGCAC,-0.113
4,GCAACGGA,0.306
5,CAGTACCG,0.0163
6,TAAGCAAA,0.144
7,GTTTGAGA,-0.0795
8,CGTAGAAC,-0.0804
9,ATAGAAGC,0.158
10,ACAATCTC,0.024
11,AACTCACC,0.0245
12,CTGTCTAC,0.105
13,GACGTTTA,-0.107
14,GAAAAATC,0.169
15,AGGATGTA,0.0443
16,ACTGGCCG,-0.218
17,ACCTGTAT,-0.0372
18,AAAATCGG,0.0903
19,GTCCTGGA,-0.308
20,GACGATGA,0.00175
21,CCGCGTTC,-0.0365
22,AGCGGTAG,-0.265
23,CAGGGGGC,-0.274
24,GCCCGCGA,-0.0595
25,AGTTCCCA,-0.122

row,Sequence,PBM E-score
1,AGGGTCCG,0.108
2,ACAGGTGA,-0.0348
3,CATATCGG,0.0712
4,CTTCTCCA,-0.222
5,CAAATATA,0.199
6,TGTGTCAA,0.104
7,CAGGACGC,-0.21
8,CGCGATGC,-0.232
9,CTATGCAG,-0.0917
10,AAAATTGT,0.219
11,AAGAGGAT,-0.104
12,ACAAGATC,-0.0402
13,TACTGGCA,-0.145
14,GAGGGCAA,-0.158
15,AACCTACA,0.173
16,TACTCGGA,0.324
17,CACCTAGA,-0.153
18,AGTCATTC,-0.004
19,ATGCGACG,-0.136
20,AGGAACAC,0.101
21,CTTACGAA,0.111
22,AGGTAGTA,-0.0238
23,ACGCAGCG,-0.204
24,CAGCCCGA,-0.211
25,ATTCATCA,0.173

row,Sequence,PBM E-score
1,ACAGCCAG,-0.0428
2,CGATGGAA,0.0782
3,AACACTGG,-0.107
4,ACTCTTCC,-0.0775
5,ACGCGGCC,-0.273
6,CGGAAGGC,0.0817
7,GAGTAGAA,0.22
8,GAAGACCA,0.149
9,ATAAGAGC,0.0743
10,AGCCGTAA,0.042
11,GCGCACCA,-0.0911
12,CCTGCTAA,-0.117
13,TCTAAACA,0.0637
14,GTATGTCA,0.12
15,GAGCAGCC,-0.251
16,AGGCCGTA,0.0171
17,CGCATGCA,-0.183
18,AGCGGTGA,-0.0452
19,AGTAATAA,0.264
20,ACTAAGAG,0.109
21,CAGAACAG,0.058
22,GATTTCGA,0.013
23,GAAATGCC,0.015
24,AGAAAGAC,0.243
25,AATAGTGC,0.106

row,Sequence,PBM E-score
1,CAGTACAC,-0.112
2,CTACATCC,0.082
3,CATAAGTC,0.122
4,CCCCAACC,-0.288
5,GGACGTCC,-0.0184
6,CCCGGGAG,-0.175
7,GACCAATC,-0.11
8,GTGTCAGA,-0.0338
9,ACTGCTCT,-0.2
10,GTACTGCA,-0.177
11,TCCCTGCA,-0.0928
12,GACGTGCC,-0.329
13,GTTGAGAA,0.148
14,ATTAACGG,0.171
15,ATGGCCTA,-0.0487
16,AGGGGGTC,-0.412
17,AGCATCGA,0.0511
18,AACATCTT,-0.028
19,TGTGCGAA,-0.122
20,ACCAGGCG,-0.0895
21,GAAGTCTA,0.0111
22,ATGCAAGA,9e-05
23,AGGATAAT,0.113
24,GCAATGAC,-0.121
25,TCCCACAA,0.0545

row,Sequence,PBM E-score
1,CGGTAGTC,0.061
2,AAAACATT,0.14
3,CCATTAAG,-0.0131
4,CGGAGTAA,0.483
5,GACGTGGC,-0.317
6,AATAACTA,0.183
7,CGTCGAGA,-0.159
8,AGAAATAT,0.17
9,TAATAAGA,0.279
10,CTTATTCA,0.057
11,ATTAAAAT,0.213
12,ATCCCTGG,-0.271
13,CGGGACTC,0.0911
14,AACATCGC,-0.177
15,GCTTTGGA,0.189
16,AATTGGAT,0.131
17,CAACTCCA,0.112
18,GACCTCTA,-0.18
19,CAAGTAGG,-0.298
20,AAACACGC,0.0836
21,GTCATAAA,0.199
22,ACGTCGCG,-0.178
23,GACGATCA,-0.0846
24,CAGTACGC,0.0614
25,CTGACTCA,-0.214

row,Sequence,PBM E-score
1,ATAGTTTC,0.185
2,ACTAGATA,0.22
3,CAATGTGG,-0.163
4,CCTAGGAA,-0.0522
5,ATAAAGTG,0.148
6,CTGAAGCC,-0.0969
7,AATGGAAT,0.0767
8,CCTTTACG,0.00031
9,GATGTCTA,-0.0645
10,AAGTTATT,0.231
11,CAGTCGAA,-0.135
12,GATCTGAA,-0.0287
13,GGCCATCA,-0.137
14,ACCTTCAT,0.0859
15,ACGCTAAA,0.083
16,ATTTTGTC,0.0653
17,GGCGAGAC,-0.294
18,CGATAACC,0.148
19,GCCTCTAA,-0.216
